According to the RNAGym collection of RNA variant scans (doi:10.7554/elife.90254):
Read counts are not given, so values of variants with three or more changes are uncertain.

B1: LINE1-mini (parent)
chain: GGCAGAGCUCAACACAGCGUGGCAAAGUGGCUGUGGCUAGACUGCC

Variants of: B1
Assay: self-cleavage, relative activity (ratio to wild type); higher = more cleavage; in vitro, sequencing; the parent is a self-cleaving ribozyme

| Variant | self-cleavage |
| --- | --- |
| G29U G35A G36C | 0.51 |
| G29U G33A A41C | 0.05 |
| U28G C42G U43A | 0.07 |
| U28G U38A A41C | 0 |
| U28G U38A A41G | 0.03 |
| G29C C31U U43C | 0.17 |
| G29C G30U C37G | 0.05 |
| G29A U32A G40C | 0.08 |
| G29U G30A U34G G35A | 0.03 |
| U28G G35A G44U | 0.08 |
| G29A G35A C42U | 0.11 |
| G29C G33U C46G | 0.05 |
| U28C G33A A41G | 0.05 |
| U28C G40C A41U | 0.05 |
| G29A U32C G35U G36U | 0.05 |
| G29U C31G U32G | 0.02 |
| U28C G33U G40C | 0.01 |
| U28C G33U G40A | 0.06 |
| G29C G35U C37A | 0.04 |
| G29C C37G A39C | 0.03 |
| G29C G30A U38C | 0.22 |
| G29U G30A C31A | 1.34 |
| G29U C31G A41G | 0.1 |
| G29A U34C C42U | 0.02 |

| Variant | self-cleavage |
| --- | --- |
| G29C G33A U34A U38C | 0.01 |
| U28C G29U C37G | 0.04 |
| U28G C37U A39C | 0.09 |
| U28A G36C U43G | 0 |
| U28C G29A C31G | 0.06 |
| G29A C37G C42G | 0.01 |
| G29A G30A U32C | 0.77 |
| G29U G30U G44C | 0.13 |
| G29C U32G G33U | 0.03 |
| G29U A39U G40C C45U | 0.12 |
| G29A U34C C46A | 0.21 |
| G29U C31A C46U | 0.05 |
| G29U G36A C37G | 0.02 |
| U28G G30C C46A | 0.07 |
| G29A C31U A39G | 0.04 |
| G29U C31U G36U | 0.07 |
| G29A G30U G36U | 0.07 |
| U28C G40U G44A | 0.07 |
| G29U A41C U43C | 0.03 |
| G29C G44A C46G | 0.1 |
| U28G C37A G40C | 0.11 |
| U28A U34A G35A U43A G44C | 0.03 |
| G29C U34A A41C | 0.06 |
| U28C G35A U38G | 0.01 |

| Variant | self-cleavage |
| --- | --- |
| G29C G30A C37A | 0.08 |
| G29U C31A A41C | 0.04 |
| G29A U32G U38C | 0.03 |
| G29A U38C G44C | 0.02 |
| G29C C37U C46A | 0.01 |
| U28C G30U A41C C42A | 0.02 |
| G29C G36A U38C C46A | 0.05 |
| G29C G35A G36U | 0.07 |
| G29C G35U C46U | 0.05 |
| G29A G30A C45A | 0.3 |
| G29C U38C G44C | 0 |
| G29A U34G G36C | 0.07 |
| G29A A39C A41C | 0.04 |
| U28G G29A G36A C37U C46A | 0.04 |
| G29U C31U C37A A39U | 0.04 |
| U28G U32A U34C C45A | 0.03 |
| U28C G35C U38A | 0.03 |
| U28A U32C G35C | 0.06 |
| G29C U32C G44A | 0.17 |
| U28G C45A C46A | 0.39 |
| U28A U32C C46G | 0.12 |
| U28A U32C C46U | 0.08 |
| U28C U32A G44A | 0.15 |
| U28G G33A G35A | 0.1 |

| Variant | self-cleavage |
| --- | --- |
| G29A U38C G40A | 0.14 |
| U28C G29U G40C C42G | 0.06 |
| U28A U38C A39G | 0.1 |
| U28G G30C G36A C45U | 0.04 |
| U28G U43G G44C | 0.05 |
| G29A G36C A39C | 0.05 |
| U28A G40U C45A | 0.12 |
| G29C C31A U34A | 0.04 |
| G29C C31U U38A A41U | 0.06 |
| G29C G40C C46A | 0.02 |
| G29C G30U G33A G35A | 0.02 |
| G29A C31A U32C | 0.06 |
| G29C U34A A39U | 0.04 |
| G29A G35A U43C | 0.04 |
| G29U G30C U32G | 0.21 |
| G29C G30C G40A | 0.08 |
| U28G G29C C37U A39G C46A | 0.01 |
| G29U A41G U43C | 0.04 |
| U28G G30C C42U | 0.04 |
| U28C C37G C42A | 0.04 |
| U28C U38A G40U | 0.15 |
| U28A U38C C45U C46U | 0.02 |
| G29U C31G C37A A39G C42A | 0.02 |
| U28G G29A C37A | 0.03 |

| Variant | self-cleavage |
| --- | --- |
| G29C U43A C45G | 0 |
| U28G U32G U34A G36U | 0.03 |
| G29C U34C G44A | 0.04 |
| U28C G35U A41U | 0.1 |
| G29U C31A G35U G36A G40U A41U | 0.04 |
| G29A C31U U38C | 0.61 |
| U28A G36U C46G | 0.03 |
| G29C G36A A39C | 0.2 |
| U28C G30C C42G | 0.02 |
| G29A G35U U43A | 0.03 |
| G29A G44U C45G | 0.21 |
| G29C G40A A41G | 0.06 |
| U28C C42U G44U | 0.1 |
| G29C U38A G40A C45U | 0.07 |
| G29A C42A C46G | 0.03 |
| U28G C31U G36U C42A | 0.09 |
| G29A G33A G36U C45U | 0.01 |
| U28C G29U A41C | 0.03 |
| G29U C31U U34C | 0.02 |
| G29U G30C C42U | 0.03 |
| U28A U38G A39U | 0.1 |
| G29A G30U C31U G36U | 0.05 |
| U28G U38G C42G | 0.01 |
| U28C U34A C37A A41C | 0.04 |

| Variant | self-cleavage |
| --- | --- |
| U28C G29C G40A | 0.03 |
| U28G G35U C37A | 0.19 |
| G29C G30A C45A | 0.36 |
| G29A G30C G33U G35A | 0.02 |
| G29A G30U G40U | 0.07 |
| G29U C31G U38C G44U | 0.02 |
| G29U G36C A39U | 0.04 |
| U28C C31G U43C | 0.05 |
| U28C G35C C45U | 0.03 |
| G29U C42G G44A C45G | 0.06 |
| U28G A39G C46G | 0.05 |
| G29C U34A G36U C46U | 0.01 |
| U28C C31G G36A A39C G40C | 0.02 |
| G29A C31A A39C | 0.18 |
| G29A G33U G40U | 0.05 |
| G29C G30C U34C C42U C45A | 0.03 |
| G29U G36A C46U | 0.04 |
| U28G C31G U32C A41C | 0.05 |
| G29C G33U U38C | 0.12 |
| G29U C31A C37U | 0.05 |
| G29U C31U C46A | 0.1 |
| G29C C31U A39G | 0.05 |
| G29U C31A C45A | 0.03 |
| U28C G35A C45U | 0.36 |

| Variant | self-cleavage |
| --- | --- |
| G29C U32C U38A | 0.78 |
| G29A C31G G35A C42G | 0.06 |
| U28C U32A C42G | 0.11 |
| G29U C45G C46A | 0.42 |
| U28G G30U G33U | 0.02 |
| G29U C37A U43C | 0.02 |
| G29C G33C C42U | 0.11 |
| G29C U32C G33C | 0.05 |
| G29A C37U C42U | 0.07 |
| U28C G30C C45U | 0.57 |
| G29A C31G C46A | 0.05 |
| U28C U32A A41C G44A | 0.07 |
| G29U C31A U43A | 0.04 |
| G29U C31A U43C | 0.02 |
| G29U C42A G44C C46G | 0.14 |
| U28G C37U C42A | 0.1 |
| G29A C42U C45A | 0.02 |
| G29U C31A G33U | 0.06 |
| G29A G35C C42G | 0.05 |
| G29A G35C C46U | 0.14 |
| U28C G36C U38A G40C | 0.19 |
| G29U C31G G44U C45A | 0.19 |
| G29C C31A G33U | 0 |
